From PubChem BioAssay AID488969 (Vanderbilt High Throughput Screening Facility, 2010) come the findings set out here.

In all, about 110,000 compounds were measured (“z-score”: median about -0.1, highest 2% from about 2 on). The list shows a part of the results. Active and inactive are the calls of the source.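 How the source made its calls: active means z-score in the third read window above 3 or below -3; inactive means the rest.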

The test deals with Metabotropic glutamate receptor 8 (Rattus norvegicus) (UniProt P70579). The experiment in a line: mGluR8 Gi/Go-coupled signaling modulation – cell-based, rat, thallium flux, HTS, primary screen (AID 488969). The note with it: HEK293 rat mGluR8, GIRK (G protein-gated inwardly rectifying potassium channel) thallium flux, FluoZin2; at 10 µM; stronger effect = higher value; submaximal glutamate (EC20) added with thallium.
UniProt P70579, sequence (P70579 whole entry, looked up): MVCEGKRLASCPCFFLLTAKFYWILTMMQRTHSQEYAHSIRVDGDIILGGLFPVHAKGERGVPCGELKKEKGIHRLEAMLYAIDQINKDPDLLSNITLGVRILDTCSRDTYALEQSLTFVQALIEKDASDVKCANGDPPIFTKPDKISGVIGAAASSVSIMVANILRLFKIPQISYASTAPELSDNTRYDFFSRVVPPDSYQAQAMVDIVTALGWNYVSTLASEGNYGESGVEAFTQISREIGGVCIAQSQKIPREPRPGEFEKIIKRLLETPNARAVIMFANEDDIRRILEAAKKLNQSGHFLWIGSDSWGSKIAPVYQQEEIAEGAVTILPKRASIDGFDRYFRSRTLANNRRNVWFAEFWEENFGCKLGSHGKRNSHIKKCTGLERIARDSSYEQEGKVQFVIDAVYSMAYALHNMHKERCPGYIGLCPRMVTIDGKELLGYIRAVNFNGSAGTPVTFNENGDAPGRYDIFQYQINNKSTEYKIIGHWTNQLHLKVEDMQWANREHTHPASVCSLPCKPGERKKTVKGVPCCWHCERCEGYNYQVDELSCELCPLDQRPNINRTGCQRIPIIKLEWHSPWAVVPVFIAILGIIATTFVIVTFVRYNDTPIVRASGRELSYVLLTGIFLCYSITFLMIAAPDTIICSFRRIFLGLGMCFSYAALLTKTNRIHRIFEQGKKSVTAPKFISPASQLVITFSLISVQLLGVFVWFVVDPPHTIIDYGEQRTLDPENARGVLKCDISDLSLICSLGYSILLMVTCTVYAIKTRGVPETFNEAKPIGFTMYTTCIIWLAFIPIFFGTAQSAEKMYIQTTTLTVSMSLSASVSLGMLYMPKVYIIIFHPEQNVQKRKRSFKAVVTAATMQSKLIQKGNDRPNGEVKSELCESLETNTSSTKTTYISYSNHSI
`CCCC(=O)Nc1ccccc1N1CCN(C(=O)c2ccccc2)CC1`: the z-score is active: -3.9.
To `Clc1ccc(CCNc2ncnc3nc[nH]c23)cc1` belongs 0.639; to `N/C(=N\OC(=O)Cc1ccccc1)c1cccnc1`, -0.295.
To `CC1Oc2ccccc2N(Cc2ccccc2F)C1=O` (configuration not stated) belongs -0.302.
For the compound `Cc1cc([N+](=O)[O-])nn1CC(=O)NNC(=S)Nc1ccc([N+](=O)[O-])cc1`, the z-score turned out to be 0.131.
To `O=C(CSc1ccc2ccccc2c1)Nc1nc2ccccc2[nH]1` belongs -0.0545.
Compound `OC(COCC1COc2ccccc2O1)CN1CCc2ccccc2C1` (configuration not stated) returned a z-score of -0.334.
For the compound `Cn1nc(C(F)(F)F)c(C(=O)Nc2cccc(C(F)(F)F)c2)c1SCc1ccc(Cl)cc1`, the z-score was -0.279.
For `O=C1c2ccccc2C(Nc2ccccc2)N1c1cccnc1` (configuration not stated), the z-score is -0.0961.
As for `COc1ccc(N2CCN(C(=O)CN(Cc3ccccc3)S(C)(=O)=O)CC2)cc1`, the z-score came to 0.0254.
To `COc1ccc(NC(=O)c2sc(SCc3ccccc3)nc2N)cc1` belongs -0.382; to `CCOc1ncccc1C(=O)OCC(=O)c1cccs1`, -0.0632; to `CCn1c(SCCOc2ccc(OC)cc2)nnc1C(CO)NC(=O)c1ccc(OC)cc1` (configuration not stated), -0.159.
With `Cc1cccc(/C=C2/SC(=O)N(Cc3ccccc3)C2=O)n1`, the z-score was -0.0965.
`Cc1cccc(C(C#N)c2nc3ccccc3nc2C(F)(F)F)c1` (configuration not stated) had a z-score of 0.0785.
The compound `O=C(CSc1nnc(CNC(=O)c2c(F)cccc2Cl)o1)Nc1ccc2c(c1)OCCO2` returned a z-score of -0.241.
Take `Cc1ccc(Cn2nnc3c(=O)[nH]c(C4CCCN(C(=O)Nc5ccc(F)cc5)C4)nc32)cc1` (configuration not stated): the z-score worked out at 0.631.
Turning to `COc1ccc(Cl)cc1N1C(=O)CC(N2CCc3ccccc32)C1=O` (configuration not stated), the z-score worked out at 0.108.
The value for `Cc1ccc(-c2nnc(SCC(=O)N3CCCc4ccccc43)n2N)cc1` was 1.38; that for `CC1CCCC(NC(=O)COC(=O)c2sc3ccccc3c2Cl)C1C` (configuration not stated) was -0.187.
On to `COc1ccc(N(Cc2ccccc2)C(=O)c2ccccc2[N+](=O)[O-])cc1`, for which the z-score is -1.8.
In the case of `N#Cc1c(NC(=O)C2CC(c3c(F)cccc3Cl)=NO2)sc2c1CCC2` (configuration not stated), the z-score was -0.118.
To `CCOC(=O)c1cc(C(=O)OCC)c2cc(Br)ccc2n1` belongs -0.198; to `CCN(CC)c1ccc2cc(-c3nc4ccccc4n3C)c(=O)oc2c1`, 0.242.
To `Cc1c(C(=O)N2CCc3ccccc32)oc2ccccc12` belongs -0.0222.
On to `NC(=O)C1CCN(CC(=O)Nc2ccccc2Sc2ccc(Cl)cc2)CC1`, for which the z-score is -0.19.
As to `CCOC(=O)c1ccc(N2C(=O)CC(Sc3nc(O)c(CC)c(=O)[nH]3)C2=O)cc1` (configuration not stated), the z-score was 0.325.
Regarding `Cc1ccccc1-n1c(SCC(=O)N/N=C/c2sccc2C)nc2ccccc2c1=O`, the z-score worked out at 0.0265.
In turn, `O=C(CSc1ncccn1)N1CCN(C(c2ccccc2)c2ccccc2)CC1` came in with a z-score of -0.203.
The compound `O=c1c2ccccc2nc(SCc2nnc(-c3ccccc3Br)o2)n1-c1ccccc1` came in with a z-score of 0.207.
`CC(=O)/C(C#N)=C1\NC(=O)C(Cc2ccccc2Cl)S1` (configuration not stated): the z-score is -0.674.
The compound `Cc1c(C(=O)Nc2ccc(Cl)cc2)c2ccccn2c1C(=O)c1ccc([N+](=O)[O-])cc1` returned a z-score of -0.0709.
With `COc1ccccc1NS(=O)(=O)c1cc(NC(=O)c2ccc3ccccc3n2)ccc1Cl`, the z-score is 0.029.
Take `Cc1ccc(S(=O)(=O)/C(C#N)=C/c2c(N3CC(C)OC(C)C3)nc3ccccn3c2=O)cc1` (configuration not stated): the z-score was -0.347.
`N#Cc1cc2cc3c(cc2nc1N1CCOCC1)OCO3`: the z-score was -0.918.
In the case of `Cc1ccc(S(=O)(=O)CCc2nc3ccccc3s2)cc1C`, the z-score is -0.169.
Consider `COc1ccc2[nH]c3c(NCc4ccco4)ncnc3c2c1`, for which the z-score is -0.887.
`COc1ccc(-c2cc(C(F)(F)F)nc(S(=O)(=O)CCC(=O)N3CCOCC3)n2)cc1`: the z-score was -0.771.
Turning to `COc1ccc(S(=O)(=O)NNC(=O)C2Cc3c(ccc4ccccc34)O2)cc1` (configuration not stated), the z-score is 0.13.
In turn, `Cc1cc2nc(C3CCN(Cc4nnnn4Cc4ccccc4)CC3)[nH]c2cc1C` yielded a z-score of -1.67.
Consider `c1ccc(C2C3=C(CCCC3)Nc3ncnn32)cc1` (configuration not stated), for which the z-score was -0.438.
In turn, `CCOC(=O)c1sc(Nc2nc3c(OC)cccc3s2)cc1C` returned a z-score of -0.137.
Take `Cc1ccc(SCCC(=O)NC(C)(C)C)cc1`: the z-score was 0.0122.
Regarding `COc1ccc(CN(CCC(c2ccc(F)cc2)C2CCOC(C)(C)C2)C(=O)c2ccco2)cc1` (configuration not stated), the z-score came to 0.164.
Turning to `Cc1cc(C)cc(OCC(=O)Nc2ccccc2C(=O)NCc2ccco2)c1`, the z-score worked out at 0.274.
`N#CCCn1cc(/C=N/O)c(-c2ccc(-c3ccccc3)cc2)n1` registered a z-score of 1.03.
Consider `COc1ccccc1OCCCn1c(=O)oc2ccccc21`, for which the z-score was -0.179.
For `CCOc1cccc(-c2nnc3sc(C4CCCCC4)nn23)c1`, the z-score amounted to 0.148.
To `CCOC(=O)c1c(C)n(C)c2ccc(OC)c(NS(=O)(=O)CC)c12` belongs 0.0365.
Take `Cc1ccc(-c2nc3ccccc3s2)cc1NC(=O)c1cc(-n2cnnc2)ccc1Cl`: the z-score is -0.032.
For the compound `COC(=O)c1nn(-c2ccccc2)c(Sc2ccc(Cl)cc2)c1/C=N/O`, the z-score was -0.169.
`Cc1cc(C)c2c3c(sc2n1)C(=O)N(C)CC(=O)N3` displayed a z-score of 0.459.
For the compound `Cc1ccc(-c2nc(Nc3ccccc3)n[nH]2)cc1`, the z-score is -0.123.
The compound `CCOC(=O)C1CCCN(c2cc(NCCCO)c([N+](=O)[O-])c3nonc23)C1` (configuration not stated) yielded a z-score of -0.307.
Turning to `C=CCN(CC=C)CCOc1ccccc1F`, the z-score is -0.272.
In turn, `CCOC(=O)c1cnc2c(-c3ccc(Cl)cc3)c(C)nn2c1N` registered a z-score of -1.38.
The value for `CC(C)C(CC(=O)N1CCCCC1)C1CCOC(C)(C)C1` (configuration not stated) was 0.287; that for `COc1ccccc1-c1cn[nH]c(=S)n1` was 0.189.
As for `CC(=O)OCCSc1c(-c2ccccc2)c2cc(Cl)ccc2[nH]c1=O`, the z-score was -1.07.
Compound `CCOc1nc(NCCN2CCOCC2)nc(NC(C)C)n1` had a z-score of -0.384.
`O=S(=O)(NCc1cccnc1)c1ccc(Br)s1` registered a z-score of -0.234.
In the case of `Cc1ccccc1Nc1nc(N)nc(COC(=O)c2cccc(S(=O)(=O)N(C)C)c2)n1`, the z-score is -0.0942.
`CCS(=O)(=O)N1CCN(C(=O)COc2ccc(-c3ccccc3)cc2)CC1` showed a z-score of -0.0325.
The value for `CC(=O)Nc1ccc(S(=O)(=O)N2CCSC2c2ccc(Cl)cc2)cc1` (configuration not stated) was 0.38; that for `CCOC(=O)c1[nH]cnc1C(=O)NC(C)C` was 0.0987; that for `c1ccc(-c2nnc3sc(-c4csc5c4CCCC5)nn23)cc1` was 0.282.
As for `COc1cccc(CNC(=O)C2CCCN(S(=O)(=O)c3cccc4nonc34)C2)c1` (configuration not stated), the z-score came to 1.17.
In the case of `COCCOC(=O)C1=C(C)NC(=O)NC1/C=C/c1ccccc1` (configuration not stated), the z-score was -0.343.
`COc1ccc(Cc2noc(-c3ccc(OC)c(OC)c3)n2)cc1OC` yielded a z-score of -0.675.
The value for `Cc1ccnc(SCc2cc(=O)c(OC(=O)c3cc([N+](=O)[O-])ccc3Cl)co2)n1` was -0.36; that for `CN=C1c2cc3cc(OC)ccc3n2CCN1Cc1ccccc1` was -0.00303; that for `COc1ccc(OC)c(S(=O)(=O)NCCc2ccccc2)c1` was -0.698.
As to `CCOC(=O)CN(c1cccc(C(C)=O)c1)S(C)(=O)=O`, the z-score was -0.191.
`CCCS(=O)(=O)NCCc1cc2ccc(C)cc2[nH]c1=O` registered a z-score of -0.174.
As for `Oc1ccc(-c2csc(-c3ccccc3)n2)cc1O`, the z-score turned out to be 0.76.
As to `COc1ccc(CCCC(=O)O)c(C)c1`, the z-score was 0.887.
For `Cc1ccccc1OCC(=O)Nc1sc2c(c1C#N)CCC2`, the z-score came out at 0.36.
`O=C(CCn1c(SCC(=O)c2ccccc2)nc2ccccc2c1=O)NCc1ccc(F)cc1` gave a z-score of -0.152.
The value for `COc1ccc(CN2CCCCCC2)c(C)c1C` was 1.28.
Turning to `O=c1oc2cc(OCc3ccc(F)cc3F)ccc2cc1-c1ccc2ccccc2n1`, the z-score was -0.209.
With `CC(C)CNC(=S)N1CCC(NC(=O)C23CC4CC(CC(C4)C2)C3)CC1`, the z-score is -0.322.
The compound `Cc1cccc(C(=O)Nc2ccccc2SCC(=O)Nc2ccc(C)c(Cl)c2)c1` had a z-score of -0.11.
Compound `C/C(=N\Nc1ncc(Cl)cc1Cl)c1ccc(OC(F)F)cc1` gave a z-score of 0.811.
`O=C(/C=C/c1ccccc1)Nn1c(-c2cccs2)nc2ccccc2c1=O` yielded a z-score of 0.0595.
As to `Cc1[nH]c(-c2ccc3c(c2)OCO3)nc1C(=O)O`, the z-score turned out to be 0.148.
`Cc1ccc(NC(=O)C(C)N2C(=O)c3ccccc3C2=O)cc1` (configuration not stated) had a z-score of 0.881.
To `Cc1ccccc1NC(=O)COc1nsnc1N1CCOCC1` belongs 0.0232.
`Brc1ccc(C2=Nc3cccc4cccc(c34)N2)o1` yielded a z-score of -0.424.
As to `CCn1ncc(C2=NOC(C(=O)Nc3cccc(C(C)=O)c3)C2)c1C` (configuration not stated), the z-score was found to be 0.517.
Turning to `CC(=O)Nc1ccc(-c2nnc(SCc3ccccc3C#N)n2C)cc1`, the z-score was 0.0291.
As to `CCn1c(CNC(=O)Cc2ccc(OC)cc2)nnc1SCC(=O)NC1CCCCC1`, the z-score was -0.13.
Consider `O=[N+]([O-])c1cccc(/C=N\N2CCN(c3ccc(Cl)cc3)CC2)c1`, for which the z-score was found to be 0.00676.
Take `O=C(Cc1c[nH]c2ccccc12)N1CCc2ccccc21`: the z-score is -0.341.
To `Nn1cnn(Cc2ccccc2)c1=S` belongs -0.356; to `O=C(O)c1cc([N+](=O)[O-])ccc1N1CCC(Cc2ccccc2)CC1`, 0.148.
Compound `COc1ccc(CCNc2nnc(Sc3nnnn3-c3ccccc3)s2)cc1OC` had a z-score of -0.0199.
Compound `Cc1ccc(Cl)cc1NC(=O)c1ccc(CSc2nnnn2C)cc1` had a z-score of -0.0888.
In turn, `CCOC(=O)c1cc2cc3ccccc3cc2[nH]1` gave a z-score of 0.0164.
With `COc1ccccc1NC(=O)Cn1cnc2c(oc3ccccc32)c1=O`, the z-score is -0.641.
Compound `O=[N+]([O-])c1ccc(Cl)cc1Sc1cccc2cccnc12` had a z-score of -0.0801.
The value for `COC(=O)C1=C(C)N=C2SC(C)C(=O)N2C1/C=C/c1ccccc1` (configuration not stated) was -0.126; that for `COC(=O)[C@H](Cc1ccccc1)NC(=O)N1CC(C)OC(C)C1` (some centres not stated) was -0.23; that for `O=C(COC(=O)c1cccc(Br)c1)NCCc1ccc(F)cc1` was -0.113.
With `CC1CN(C(=O)CCn2c(=O)oc3ccccc32)CC(C)O1` (configuration not stated), the z-score is -0.248.
As to `N#Cc1cc2c(=O)n3ccccc3nc2n(Cc2cccnc2)c1=N`, the z-score came out at 0.0145.
In turn, `Cn1nnnc1SCCNC/C=C/c1ccccc1` showed a z-score of 0.661.
`COc1ccc2c(c1OC)C(=O)OC2Nc1nc(-c2cc3cc([N+](=O)[O-])ccc3oc2=O)cs1` (configuration not stated) displayed a z-score of 0.478.
Turning to `CCc1nc(C)cn1S(=O)(=O)c1cc(C)c(OC)cc1C`, the z-score is 0.289.
To `Cc1ccc(NC(=O)COC(=O)c2cccc3c2C(=O)c2ccccc2C3=O)c(C)c1` belongs -0.443.
`O=c1c2ccccc2nc(COc2ccccc2)n1/N=C/c1c[nH]c2ccccc12` yielded a z-score of -0.533.
For the compound `CCOC(=O)C1=C(N)N(c2ccccc2Oc2ccccc2)C(=O)C1`, the z-score was 0.16.
In turn, `COc1ccc(-c2nnc3ccc(SCC(=O)N4CCCC4)nn23)cc1` registered a z-score of -0.183.
